# Results published in the supplement of paper PMC9135407.
# “And” between values parts separate entries of the source, which are not always exact repeats. Identical values can stand only once. Counter-ions that a name gives are not always drawn. Screen size: about 5,800 compounds; about 620 (11%) showed activity.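 The calls were made as follows: active = score above a cut-off or among the top three wells of a plate; in these data no inactive exceeds 0.85.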 Only a part is listed here, and it is no random draw.
# Tested on: primary human hepatic stellate cells (donor 1)
# Experiment: scaled lipid accumulation score (0 = DMSO-like, 1 = nortriptyline-like); higher = stronger HSC inactivation (lipid re-accumulation), active = hit call of the paper
# Conditions: 48 h
# [1] = library stock concentration: 3.33 mM
# [2] = library stock concentration: 10 mM
# [3] = library stock concentration: 80 uM
# [4] = library stock concentration: 400 uM
# [5] = library stock concentration: 2 mM
# [6] = library stock concentration: 1 mM
structure (smiles),measurement,setting,value
CC1(C)CCC(c2ccc(Cl)cc2)=C(CN2CCN(c3ccc(C(=O)NS(=O)(=O)c4ccc(N[C@H](CCN5CCOCC5)CSc5ccccc5)c(S(=O)(=O)C(F)(F)F)c4)cc3)CC2)C1 [ABT-263 (Navitoclax)],scaled lipid accumulation score,[1],inactive: 0.024
same,scaled lipid accumulation score,[2],inactive: 0.048
NC(=O)c1ccccc1O [Salicylamide],scaled lipid accumulation score,[2],inactive: ≤ 0
CCOC(=O)N1CCC(=C2c3ccc(Cl)cc3CCc3cccnc32)CC1 [Loratadine],scaled lipid accumulation score,[1],inactive: ≤ 0
same,scaled lipid accumulation score,library stock concentration: 5.2 mM,inactive: ≤ 0
same,scaled lipid accumulation score,[2],inactive: ≤ 0 and inactive: 0.008
CCOC(=O)N1CCC(=C2c3ccc(Cl)cc3CCc3cccnc32)CC1 [Loratidine],scaled lipid accumulation score,[2],inactive: 0.128
CCOC(=O)N1CCC(=C2c3ccc(Cl)cc3CCc3cccnc32)CC1,scaled lipid accumulation score,[2],inactive: ≤ 0
O=C(NOCC1CC1)c1ccc(F)c(F)c1Nc1ccc(I)cc1Cl,scaled lipid accumulation score,[3],inactive: ≤ 0
same,scaled lipid accumulation score,[4],inactive: 0.008 and inactive: ≤ -0.005
same,scaled lipid accumulation score,[5],inactive: 0.026 and inactive: ≤ -0.005
same,scaled lipid accumulation score,[1],inactive: ≤ 0
same,scaled lipid accumulation score,[2],inactive: ≤ 0 and inactive: 0.497
CC(C(=O)O)c1ccc(CC2CCCC2=O)cc1 (stereo not drawn) [loxoprofen],scaled lipid accumulation score,[2],inactive: 0.127
CC(C(=O)O)c1ccc(CC2CCCC2=O)cc1 (stereo not drawn),scaled lipid accumulation score,[2],inactive: ≤ 0
COC(=O)CCCCCCC1C(O)CC(O)C1CCC(O)C#Cc1ccccc1F (stereo not drawn),scaled lipid accumulation score,[6],inactive: ≤ 0
CC[C@H]1OC(=O)[C@H](C)[C@@H](O[C@H]2C[C@@](C)(OC)[C@@H](O)[C@H](C)O2)[C@H](C)[C@@H](O[C@@H]2O[C@H](C)C[C@H](N(C)C)[C@H]2O)[C@](C)(O)C[C@@H](C)C(=O)[C@H](C)[C@@H](O)[C@]1(C)O [Erythromycin],scaled lipid accumulation score,,inactive: 0.066
same,scaled lipid accumulation score,[1],inactive: 0.027
same,scaled lipid accumulation score,[2],inactive: ≤ 0
CC[C@H]1OC(=O)[C@H](C)[C@@H](O[C@H]2C[C@@](C)(OC)[C@@H](O)[C@H](C)O2)[C@H](C)[C@@H](O[C@@H]2O[C@H](C)C[C@H](N(C)C)[C@H]2O)[C@](C)(O)C[C@@H](C)C(=O)[C@H](C)[C@@H](O)[C@]1(C)O,scaled lipid accumulation score,[2],inactive: 0.396
O=S(=O)(c1cccc2c(Cl)cccc12)N1CCCNCC1,scaled lipid accumulation score,[2],active: 1.02
CC1=C(/C=C/C(C)=C/C=C/C(C)=C/C=C/C=C(C)/C=C/C=C(C)/C=C/C2=C(C)CCCC2(C)C)C(C)(C)CCC1 [Beta Carotene],scaled lipid accumulation score,[1],inactive: ≤ 0
same,scaled lipid accumulation score,[2],inactive: ≤ 0
CCCCCCCCCCCCCC(=O)N[C@H](C)[C@@H](O)c1ccccc1 [D-erythro-MAPP],scaled lipid accumulation score,[6],inactive: ≤ 0 and inactive: 0.048
c1ccc(CC2=NCCN2)cc1 [Priscoline],scaled lipid accumulation score,[2],inactive: 0.013
c1ccc(CC2=NCCN2)cc1 [Tolazoline hydrochloride],scaled lipid accumulation score,,inactive: ≤ 0
same,scaled lipid accumulation score,[2],inactive: ≤ 0
c1ccc(CC2=NCCN2)cc1 [Tolazoline HCl],scaled lipid accumulation score,[1],inactive: ≤ 0
same,scaled lipid accumulation score,[2],inactive: ≤ -0.001
NCCCCC(=O)O [5-aminopentanoic acid hydrochloride],scaled lipid accumulation score,[2],inactive: ≤ 0
NCCCCC(=O)O [5-Aminovaleric acid hydrochloride],scaled lipid accumulation score,[2],inactive: ≤ 0
CC(C)(Oc1ccc(CCNC(=O)c2ccc(Cl)cc2)cc1)C(=O)O [Bezafibrate],scaled lipid accumulation score,,inactive: ≤ 0
same,scaled lipid accumulation score,[6],inactive: ≤ 0
same,scaled lipid accumulation score,[1],inactive: ≤ 0
same,scaled lipid accumulation score,[2],inactive: ≤ -0.001 and inactive: 0.041 and inactive: ≤ 0
CC(C)(Oc1ccc(CCNC(=O)c2ccc(Cl)cc2)cc1)C(=O)O [bezafibrate],scaled lipid accumulation score,library stock concentration: 13.8 mM,inactive: ≤ -0.021
OCCN1CCN(CCCN2c3ccccc3Sc3ccc(C(F)(F)F)cc32)CC1,scaled lipid accumulation score,[2],active: 1.34
OCCN1CCN(CCCN2c3ccccc3Sc3ccc(C(F)(F)F)cc32)CC1 [Fluphenazine dihydrochloride],scaled lipid accumulation score,,inactive: 0.627
same,scaled lipid accumulation score,[2],inactive: ≤ -0.07
OCCN1CCN(CCCN2c3ccccc3Sc3ccc(C(F)(F)F)cc32)CC1 [Fluphenazine hydrochloride],scaled lipid accumulation score,[2],inactive: 0.407
"COc1cc2c(Nc3ccc(Br)cc3F)ncnc2cc1OCC1CCN(C)CC1 [Vandetanib  (ZD6474, Zactima) (2 mM)]",scaled lipid accumulation score,[5],active: 0.855
"COc1cc2c(Nc3ccc(Br)cc3F)ncnc2cc1OCC1CCN(C)CC1 [Vandetanib  (ZD6474, Zactima) (0.4 mM)]",scaled lipid accumulation score,[4],active: 1.1
O=C(c1cc(Cc2n[nH]c(=O)c3ccccc23)ccc1F)N1CCN(C(=O)C2CC2)CC1,scaled lipid accumulation score,[1],inactive: ≤ 0
same,scaled lipid accumulation score,[2],inactive: ≤ 0
O=C(c1cc(Cc2n[nH]c(=O)c3ccccc23)ccc1F)N1CCN(C(=O)C2CC2)CC1 [Olaparib],scaled lipid accumulation score,[3],inactive: ≤ -0.0005
same,scaled lipid accumulation score,[4],inactive: ≤ -0.0045
same,scaled lipid accumulation score,[5],inactive: ≤ -0.0045
same,scaled lipid accumulation score,[2],inactive: ≤ -0.0045
O=C(O)CCCc1c[nH]c2ccccc12 [3-Indolebutyric acid (IBA)],scaled lipid accumulation score,[1],inactive: 0.014
same,scaled lipid accumulation score,[2],inactive: ≤ 0
O=C1c2ccccc2C(=O)C1c1ccccc1 [Phenindione],scaled lipid accumulation score,,inactive: ≤ 0
same,scaled lipid accumulation score,[1],inactive: ≤ 0
same,scaled lipid accumulation score,library stock concentration: 9 mM,inactive: 0.014
same,scaled lipid accumulation score,[2],inactive: ≤ 0
Clc1ccc2c(c1)C(N1CCNCC1)=Nc1ccccc1O2 [Amoxapine],scaled lipid accumulation score,library stock concentration: 6.4 mM,inactive: 0.598
Clc1ccc2c(c1)C(N1CCNCC1)=Nc1ccccc1O2,scaled lipid accumulation score,[2],inactive: 0.843
Cc1cc(C=C2C(=O)C=CC2=O)cc(C)c1O,scaled lipid accumulation score,[3],inactive: ≤ -0.001
same,scaled lipid accumulation score,[4],inactive: ≤ -0.001
same,scaled lipid accumulation score,[5],inactive: 0.593
same,scaled lipid accumulation score,[1],inactive: 0.464
O=C(O)CCc1nc(-c2ccccc2)c(-c2ccccc2)o1,scaled lipid accumulation score,[2],inactive: ≤ 0
O=C(O)CCc1nc(-c2ccccc2)c(-c2ccccc2)o1 [Oxaprozin],scaled lipid accumulation score,,inactive: ≤ 0
same,scaled lipid accumulation score,[1],inactive: ≤ 0
same,scaled lipid accumulation score,library stock concentration: 6.8 mM,inactive: ≤ 0
same,scaled lipid accumulation score,[2],inactive: ≤ -0.001 and inactive: 0.148 and inactive: 0.147
CC1(C)CC(=O)c2c(ccc(C(=O)CC(N)CO)c2N)O1 (stereo not drawn),scaled lipid accumulation score,[2],active: 1.03
COc1c(C)cnc(Cn2cnc3c(Cl)nc(N)nc32)c1C,scaled lipid accumulation score,[1],active: 0.885
CNC[C@@H](O)c1ccc(O)c(O)c1 [L-Adrenaline],scaled lipid accumulation score,[1],inactive: 0.029
same,scaled lipid accumulation score,[2],inactive: ≤ 0
Cc1ccc(N(CC2=NCCN2)c2cccc(O)c2)cc1 [PhentolamineHCl],scaled lipid accumulation score,library stock concentration: 7.1 mM,inactive: 0.024
Cc1ccc(N(CC2=NCCN2)c2cccc(O)c2)cc1 [Phentolamine hydrochloride],scaled lipid accumulation score,,inactive: 0.051
same,scaled lipid accumulation score,library stock concentration: 6.3 mM,inactive: 0.079
same,scaled lipid accumulation score,[2],inactive: ≤ 0
Cc1ccc(N(CC2=NCCN2)c2cccc(O)c2)cc1 [Phentolamine],scaled lipid accumulation score,library stock concentration: 17.8 mM,inactive: 0.3
Cc1ccc(N(CC2=NCCN2)c2cccc(O)c2)cc1 [Phentolamine mesylate],scaled lipid accumulation score,[2],inactive: ≤ 0
Cc1ccc(N(CC2=NCCN2)c2cccc(O)c2)cc1 [Phentolamine Mesylate],scaled lipid accumulation score,[1],inactive: 0.03
same,scaled lipid accumulation score,[2],inactive: 0.159
Cc1ccc(N(CC2=NCCN2)c2cccc(O)c2)cc1 [Phentolamine?Mono-hydrochloride],scaled lipid accumulation score,[2],inactive: 0.482
"CN(C)C/C=C/C(=O)Nc1cc2c(Nc3ccc(F)c(Cl)c3)ncnc2cc1O[C@H]1CCOC1 [Afatinib  (TOVOK,  BIBW-2992) (2 mM)]",scaled lipid accumulation score,[5],active: 1.29
CC(C)(C)c1ccc(/C=C/C(=O)Nc2ccc3c(c2)OCCO3)cc1,scaled lipid accumulation score,[2],inactive: 0.122 and inactive: 0.031
Cc1n[nH]c2ccc(-c3cncc(OC[C@@H](N)Cc4ccccc4)c3)cc12,scaled lipid accumulation score,[1],active: 1.24
Cc1[nH]c(/C=C2\C(=O)Nc3ccc(S(=O)(=O)N(C)c4cccc(Cl)c4)cc32)c(C)c1C(=O)N1CCN(C)CC1 [Met Kinase Inhibitor],scaled lipid accumulation score,[1],active: 1.38
O=C(O)c1ccccc1-c1c2cc(I)c(=O)c(I)c-2oc2c(I)c(O)c(I)cc12,scaled lipid accumulation score,[2],inactive: 0.008
CCc1ccc(CCOc2ccc(CC3SC(=O)NC3=O)cc2)nc1 (stereo not drawn) [Pioglitazone hydrochloride],scaled lipid accumulation score,library stock concentration: 5.1 mM,inactive: ≤ 0
same,scaled lipid accumulation score,[2],inactive: ≤ -0.027
CCc1ccc(CCOc2ccc(CC3SC(=O)NC3=O)cc2)nc1 (stereo not drawn) [Pioglitazone],scaled lipid accumulation score,[1],inactive: ≤ 0
same,scaled lipid accumulation score,[2],inactive: ≤ 0
CCc1ccc(CCOc2ccc(CC3SC(=O)NC3=O)cc2)nc1 (stereo not drawn),scaled lipid accumulation score,[2],inactive: ≤ 0
CCc1ccc(CCOc2ccc(CC3SC(=O)NC3=O)cc2)nc1 (stereo not drawn) [Pioglitazone HCl],scaled lipid accumulation score,[1],inactive: ≤ 0
same,scaled lipid accumulation score,[2],inactive: ≤ 0
CC[n+]1c(/C=C/C=C2/N(C)c3ccccc3C2(C)C)sc2ccccc21,scaled lipid accumulation score,[2],inactive: 0.767
Cc1c(Cl)cccc1Nc1ccccc1C(=O)O [Tolfenamic Acid],scaled lipid accumulation score,[1],inactive: ≤ 0
same,scaled lipid accumulation score,[2],inactive: ≤ 0
Cc1c(Cl)cccc1Nc1ccccc1C(=O)O [Tolfenamic acid],scaled lipid accumulation score,,inactive: ≤ 0
same,scaled lipid accumulation score,library stock concentration: 7.6 mM,inactive: ≤ 0
same,scaled lipid accumulation score,[2],inactive: ≤ 0
CC(C)NCC(O)c1ccc(O)c(O)c1 (racemic) [Isoproterenol HCl (rac)],scaled lipid accumulation score,library stock concentration: 9.5 mM,inactive: ≤ -0.006
COc1cc(F)c(C(C)C)cc1-c1ccc(C(F)(F)F)cc1CN1C(=O)O[C@H](c2cc(C(F)(F)F)cc(C(F)(F)F)c2)[C@@H]1C [Anacetrapib (MK-0859)],scaled lipid accumulation score,[1],inactive: ≤ 0
same,scaled lipid accumulation score,[2],inactive: ≤ 0
CO[C@H]1/C=C/O[C@@]2(C)Oc3c(C)c(O)c4c(O)c(c(/C=N/N5CCN(C)CC5)c(O)c4c3C2=O)NC(=O)/C(C)=C\C=C\[C@H](C)[C@H](O)[C@@H](C)[C@@H](O)[C@@H](C)[C@H](OC(C)=O)[C@@H]1C [Rifampicin],scaled lipid accumulation score,,inactive: ≤ 0
CO[C@H]1/C=C/O[C@@]2(C)Oc3c(C)c(O)c4c(O)c(c(/C=N/N5CCN(C)CC5)c(O)c4c3C2=O)NC(=O)/C(C)=C\C=C\[C@H](C)[C@H](O)[C@@H](C)[C@@H](O)[C@@H](C)[C@H](OC(C)=O)[C@@H]1C,scaled lipid accumulation score,[2],inactive: 0.008
CO[C@H]1/C=C/O[C@@]2(C)Oc3c(C)c(O)c4c(O)c(c(/C=N/N5CCN(C)CC5)c(O)c4c3C2=O)NC(=O)/C(C)=C\C=C\[C@H](C)[C@H](O)[C@@H](C)[C@@H](O)[C@@H](C)[C@H](OC(C)=O)[C@@H]1C [Rifampin],scaled lipid accumulation score,[1],inactive: ≤ 0
same,scaled lipid accumulation score,[2],inactive: ≤ 0
